According to the supplement of paper PMC9151546:
Most values come without repeats; read them as rough.

Experiments:
CHO-K1 [1] = assay: micronucleus frequency (% of nucleated events); higher = more micronuclei (genotoxic)
CHO-K1 [2] = assay: hypodiploid nuclei frequency (% of nucleated events); higher = more hypodiploid events (aneugenic)
Protocol: (§1)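 Flow-cytometric in vitro micronucleus assay (Litron MicroFlow) in CHO-K1 cells in 96-well plates, 19 concentrations (4.5-200 µM, n=1 per concentration). Without S9, cells were exposed for 24 h and sampled at 48 h. With Aroclor 1254-induced rat liver S9, cells were exposed for 3-4 h and sampled at 27-28 h. Read-outs are %MN and %hypodiploid nuclei relative to nucleated events, and relative survival as the nuclei-to-bead ratio versus the 1% DMSO vehicle control (x100).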

CHO-K1 [3] = assay: relative survival (nuclei to bead ratio vs DMSO control) (% of vehicle control); higher = more surviving cells
Protocol: as §1
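For hypodiploid nuclei frequency (% of nucleated events) in this document: hypodiploid nuclei gated on a flow cytometer with 488 nm excitation after SYTOX Green staining, cultures at 37 °C, positive controls vinblastine without S9 and cyclophosphamide with S9.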
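For micronucleus frequency (% of nucleated events) in this document: cells lysed with nuclei stained by SYTOX Green, then micronucleus-gated events counted against nucleated events by flow cytometry with 488 nm excitation.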
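For relative survival (nuclei to bead ratio vs DMSO control) in this document: Lysed-cell nuclei stained with SYTOX Green and counted against counting beads by flow cytometry at 488 nm excitation, with vinblastine (no S9) and cyclophosphamide (plus S9) as positive controls.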

Nc1ccc(-c2ccc(N)cc2)cc1 [Benzidine]
Settings	hypodiploid nuclei frequency, CHO-K1 [2] [%]	micronucleus frequency, CHO-K1 [1] [%]	relative survival, CHO-K1 [3]
concentration: 4.5 (µM), S9 metabolic activation: with S9, exposure time: 3-4 hours	0.14	1.46	140
concentration: 4.5 (µM), S9 metabolic activation: without S9, exposure time: 24 hours	0.42	1.46	115
concentration: 5.63 (µM), S9 metabolic activation: with S9, exposure time: 3-4 hours	0.18	1.32	151
concentration: 5.63 (µM), S9 metabolic activation: without S9, exposure time: 24 hours	0.66	1.24	115
concentration: 7.04 (µM), S9 metabolic activation: with S9, exposure time: 3-4 hours	0.2	1.24	134
concentration: 7.04 (µM), S9 metabolic activation: without S9, exposure time: 24 hours	0.6	1.78	100
concentration: 8.8 (µM), S9 metabolic activation: with S9, exposure time: 3-4 hours	0.36	1.42	152
concentration: 8.8 (µM), S9 metabolic activation: without S9, exposure time: 24 hours	0.64	1.62	88.8
concentration: 11 (µM), S9 metabolic activation: with S9, exposure time: 3-4 hours	0.26	1.48	168
concentration: 11 (µM), S9 metabolic activation: without S9, exposure time: 24 hours	0.62	1.5	91.2
concentration: 13.7 (µM), S9 metabolic activation: with S9, exposure time: 3-4 hours	0.14	1.48	129
concentration: 13.7 (µM), S9 metabolic activation: without S9, exposure time: 24 hours	0.96	2.02	95
concentration: 17.2 (µM), S9 metabolic activation: with S9, exposure time: 3-4 hours	0.14	1.6	137
concentration: 17.2 (µM), S9 metabolic activation: without S9, exposure time: 24 hours	0.78	1.84	88.4
concentration: 21.5 (µM), S9 metabolic activation: with S9, exposure time: 3-4 hours	0.26	1.6	141
concentration: 21.5 (µM), S9 metabolic activation: without S9, exposure time: 24 hours	0.94	2.28	85.8
concentration: 26.8 (µM), S9 metabolic activation: with S9, exposure time: 3-4 hours	0.22	1.9	242
concentration: 26.8 (µM), S9 metabolic activation: without S9, exposure time: 24 hours	1	2.14	84
concentration: 33.6 (µM), S9 metabolic activation: with S9, exposure time: 3-4 hours	0.3	1.44	146
concentration: 33.6 (µM), S9 metabolic activation: without S9, exposure time: 24 hours	1.26	2.62	86.1
concentration: 41.9 (µM), S9 metabolic activation: with S9, exposure time: 3-4 hours	0.32	0.96	118
concentration: 41.9 (µM), S9 metabolic activation: without S9, exposure time: 24 hours	1.62	2.46	79.6
concentration: 52.4 (µM), S9 metabolic activation: with S9, exposure time: 3-4 hours	0.22	1.1	125
concentration: 52.4 (µM), S9 metabolic activation: without S9, exposure time: 24 hours	2.4	3.3	82.8
concentration: 65.5 (µM), S9 metabolic activation: with S9, exposure time: 3-4 hours	0.24	1.06	104
concentration: 65.5 (µM), S9 metabolic activation: without S9, exposure time: 24 hours	2.98	2.74	64.5
concentration: 81.9 (µM), S9 metabolic activation: with S9, exposure time: 3-4 hours	0.12	1.44	153
concentration: 81.9 (µM), S9 metabolic activation: without S9, exposure time: 24 hours	2.56	3.4	63.3
concentration: 102 (µM), S9 metabolic activation: with S9, exposure time: 3-4 hours	0.42	1.08	143
concentration: 102 (µM), S9 metabolic activation: without S9, exposure time: 24 hours	2.91	3.37	50.1
concentration: 128 (µM), S9 metabolic activation: with S9, exposure time: 3-4 hours	0.16	1.5	101
concentration: 128 (µM), S9 metabolic activation: without S9, exposure time: 24 hours	3.46	3.58	51
concentration: 160 (µM), S9 metabolic activation: with S9, exposure time: 3-4 hours	0.16	1.64	127
concentration: 160 (µM), S9 metabolic activation: without S9, exposure time: 24 hours	1.94	2.97	50.1
concentration: 200 (µM), S9 metabolic activation: with S9, exposure time: 3-4 hours	0.28	1.58	115
concentration: 200 (µM), S9 metabolic activation: without S9, exposure time: 24 hours	1.2	2.5	52.8

c1ccc2c(c1)-c1cccc3c1c-2cc1ccccc13 [Benzo(b)fluoranthene]
Settings	hypodiploid nuclei frequency, CHO-K1 [2] [%]	micronucleus frequency, CHO-K1 [1] [%]	relative survival, CHO-K1 [3]
concentration: 4.5 (µM), S9 metabolic activation: with S9, exposure time: 3-4 hours	0.08	1.26	74.5
concentration: 4.5 (µM), S9 metabolic activation: without S9, exposure time: 24 hours	0.64	1.82	89.8
concentration: 5.63 (µM), S9 metabolic activation: with S9, exposure time: 3-4 hours	0.2	0.86	76.1
concentration: 5.63 (µM), S9 metabolic activation: without S9, exposure time: 24 hours	0.66	1.42	73.4
concentration: 7.04 (µM), S9 metabolic activation: with S9, exposure time: 3-4 hours	0.28	1.44	74
concentration: 7.04 (µM), S9 metabolic activation: without S9, exposure time: 24 hours	0.42	1.9	97.2
concentration: 8.8 (µM), S9 metabolic activation: with S9, exposure time: 3-4 hours	0.24	1.38	78.6
concentration: 8.8 (µM), S9 metabolic activation: without S9, exposure time: 24 hours	0.42	1.66	97.2
concentration: 11 (µM), S9 metabolic activation: with S9, exposure time: 3-4 hours	0.22	1.46	84.4
concentration: 11 (µM), S9 metabolic activation: without S9, exposure time: 24 hours	0.56	1.84	93.7
concentration: 13.7 (µM), S9 metabolic activation: with S9, exposure time: 3-4 hours	0.18	1.8	86.2
concentration: 13.7 (µM), S9 metabolic activation: without S9, exposure time: 24 hours	0.48	1.6	85.4
concentration: 17.2 (µM), S9 metabolic activation: with S9, exposure time: 3-4 hours	0.3	2	60.4
concentration: 17.2 (µM), S9 metabolic activation: without S9, exposure time: 24 hours	0.6	2.08	92.7
concentration: 21.5 (µM), S9 metabolic activation: with S9, exposure time: 3-4 hours	0.4	2.62	74.8
concentration: 21.5 (µM), S9 metabolic activation: without S9, exposure time: 24 hours	0.7	2.02	95.4
concentration: 26.8 (µM), S9 metabolic activation: with S9, exposure time: 3-4 hours	–	–	32.6
concentration: 26.8 (µM), S9 metabolic activation: without S9, exposure time: 24 hours	0.62	1.52	76.2
concentration: 33.6 (µM), S9 metabolic activation: with S9, exposure time: 3-4 hours	–	–	27.1
concentration: 33.6 (µM), S9 metabolic activation: without S9, exposure time: 24 hours	0.62	1.18	81.7
concentration: 41.9 (µM), S9 metabolic activation: with S9, exposure time: 3-4 hours	–	–	16.2
concentration: 41.9 (µM), S9 metabolic activation: without S9, exposure time: 24 hours	0.64	1.98	93.4
concentration: 52.4 (µM), S9 metabolic activation: with S9, exposure time: 3-4 hours	–	–	17
concentration: 52.4 (µM), S9 metabolic activation: without S9, exposure time: 24 hours	0.64	2.12	77.6
concentration: 65.5 (µM), S9 metabolic activation: with S9, exposure time: 3-4 hours	–	–	22.2
concentration: 65.5 (µM), S9 metabolic activation: without S9, exposure time: 24 hours	0.8	1.76	69.3
concentration: 81.9 (µM), S9 metabolic activation: with S9, exposure time: 3-4 hours	–	–	12.9
concentration: 81.9 (µM), S9 metabolic activation: without S9, exposure time: 24 hours	0.6	2.48	68.8
concentration: 102 (µM), S9 metabolic activation: with S9, exposure time: 3-4 hours	–	–	19
concentration: 102 (µM), S9 metabolic activation: without S9, exposure time: 24 hours	0.82	1.66	83.3
concentration: 128 (µM), S9 metabolic activation: with S9, exposure time: 3-4 hours	–	–	16.4
concentration: 128 (µM), S9 metabolic activation: without S9, exposure time: 24 hours	1.18	2.12	53.4
concentration: 160 (µM), S9 metabolic activation: with S9, exposure time: 3-4 hours	–	–	22.1
concentration: 160 (µM), S9 metabolic activation: without S9, exposure time: 24 hours	1.52	2.68	76.7
concentration: 200 (µM), S9 metabolic activation: with S9, exposure time: 3-4 hours	–	–	28.9
concentration: 200 (µM), S9 metabolic activation: without S9, exposure time: 24 hours	1.14	2.92	85.2

O=C(O)c1ccccc1 [Benzoic acid]
Settings	hypodiploid nuclei frequency, CHO-K1 [2] [%]	micronucleus frequency, CHO-K1 [1] [%]	relative survival, CHO-K1 [3]
concentration: 4.53 (µM), S9 metabolic activation: with S9, exposure time: 3-4 hours	0.24	1.32	90.7
concentration: 4.53 (µM), S9 metabolic activation: without S9, exposure time: 24 hours	0.54	1.32	106
concentration: 5.66 (µM), S9 metabolic activation: with S9, exposure time: 3-4 hours	0.3	1.52	93.5
concentration: 5.66 (µM), S9 metabolic activation: without S9, exposure time: 24 hours	0.34	1.2	108
concentration: 7.07 (µM), S9 metabolic activation: with S9, exposure time: 3-4 hours	0.08	1.34	98
concentration: 7.07 (µM), S9 metabolic activation: without S9, exposure time: 24 hours	0.58	1.48	119
concentration: 8.84 (µM), S9 metabolic activation: with S9, exposure time: 3-4 hours	0.32	2.24	110
concentration: 8.84 (µM), S9 metabolic activation: without S9, exposure time: 24 hours	0.58	1.44	140
concentration: 11.1 (µM), S9 metabolic activation: with S9, exposure time: 3-4 hours	0.34	1.76	95.2
concentration: 11.1 (µM), S9 metabolic activation: without S9, exposure time: 24 hours	0.58	1.18	117
concentration: 13.8 (µM), S9 metabolic activation: with S9, exposure time: 3-4 hours	0.38	1.68	127
concentration: 13.8 (µM), S9 metabolic activation: without S9, exposure time: 24 hours	0.52	1.34	116
concentration: 17.3 (µM), S9 metabolic activation: with S9, exposure time: 3-4 hours	0.6	2.32	118
concentration: 17.3 (µM), S9 metabolic activation: without S9, exposure time: 24 hours	0.36	1.5	132
concentration: 21.6 (µM), S9 metabolic activation: with S9, exposure time: 3-4 hours	0.32	1.48	110
concentration: 21.6 (µM), S9 metabolic activation: without S9, exposure time: 24 hours	0.48	1.52	116
concentration: 27 (µM), S9 metabolic activation: with S9, exposure time: 3-4 hours	0.26	0.94	88.5
concentration: 27 (µM), S9 metabolic activation: without S9, exposure time: 24 hours	0.64	1.82	97
concentration: 33.7 (µM), S9 metabolic activation: with S9, exposure time: 3-4 hours	0.26	1.36	89.8
concentration: 33.7 (µM), S9 metabolic activation: without S9, exposure time: 24 hours	0.52	1.4	104
concentration: 42.2 (µM), S9 metabolic activation: with S9, exposure time: 3-4 hours	0.22	1.88	76.2
concentration: 42.2 (µM), S9 metabolic activation: without S9, exposure time: 24 hours	0.62	1.12	104
concentration: 52.7 (µM), S9 metabolic activation: with S9, exposure time: 3-4 hours	0.28	1.46	93
concentration: 52.7 (µM), S9 metabolic activation: without S9, exposure time: 24 hours	0.52	1.34	111
concentration: 65.9 (µM), S9 metabolic activation: with S9, exposure time: 3-4 hours	0.22	1.3	96.7
concentration: 65.9 (µM), S9 metabolic activation: without S9, exposure time: 24 hours	0.7	1.38	104
concentration: 82.3 (µM), S9 metabolic activation: with S9, exposure time: 3-4 hours	0.22	2.14	99.6
concentration: 82.3 (µM), S9 metabolic activation: without S9, exposure time: 24 hours	0.5	1.66	104
concentration: 103 (µM), S9 metabolic activation: with S9, exposure time: 3-4 hours	0.32	1.64	109
concentration: 103 (µM), S9 metabolic activation: without S9, exposure time: 24 hours	0.82	1.7	101
concentration: 129 (µM), S9 metabolic activation: with S9, exposure time: 3-4 hours	0.34	1.86	107
concentration: 129 (µM), S9 metabolic activation: without S9, exposure time: 24 hours	1	1.9	98.4
concentration: 161 (µM), S9 metabolic activation: with S9, exposure time: 3-4 hours	0.4	1.36	119
concentration: 161 (µM), S9 metabolic activation: without S9, exposure time: 24 hours	1.16	1.64	86.3
concentration: 201 (µM), S9 metabolic activation: with S9, exposure time: 3-4 hours	0.3	1.18	111
concentration: 201 (µM), S9 metabolic activation: without S9, exposure time: 24 hours	1.06	2.02	90.7
